The list shows a part of the results. Further columns of the screen follow, without active or inactive calls. Square brackets hold non-standard residues; d marks the D form. Peptide text beside a SMILES is read from it. * marks the point of attachment. Dolaproine = CO[C@@H]([C@@H]1CCCN1)[C@@H](C)C(=O)O; Dil = CC[C@H](C)[C@H](NC)[C@@H](CC(=O)O)OC; Doe = c1ccc(C[C@H](N*)c2nccs2)cc1; Aib = CC(C)(N)C(=O)O
Columns and labels:
Experiment in all cases: Primary Screen for Target Class Profiling of Small Molecule Inhibitors of Methyltransferases
[1] = target: Glycine N-methyltransferase (Homo sapiens) (UniProt Q14749); settings: purified enzyme, MTase-Glo SAH luminescence; measured here: GNMT inhibition; at 40 µM; stronger effect = lower value
In short: (§1)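 Each enzyme was reacted with SAM and its substrate, with compounds tested once at 40 uM; SAH formed was read by MTase-Glo luminescence.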

[2] = target: Guanidinoacetate N-methyltransferase (Homo sapiens) (UniProt Q14353); settings: purified enzyme, MTase-Glo SAH luminescence; measured here: GAMT inhibition; at 40 µM; stronger effect = lower value
In short: as §1

[3] = target: Histamine N-methyltransferase (Homo sapiens) (UniProt P50135); settings: purified enzyme, MTase-Glo SAH luminescence; measured here: HNMT inhibition; at 40 µM; stronger effect = lower value
In short: as §1

[4] = target: Nicotinamide N-methyltransferase (Homo sapiens) (UniProt P40261); settings: purified enzyme, MTase-Glo SAH luminescence; measured here: NNMT inhibition; at 40 µM; stronger effect = lower value
In short: as §1

[5] = target: Phenylethanolamine N-methyltransferase (Homo sapiens) (UniProt P11086); settings: purified enzyme, MTase-Glo SAH luminescence; measured here: PNMT inhibition; at 40 µM; stronger effect = lower value
In short: as §1
On the % scale 0 is the no-effect control and ±100 the full control effect.

SMILES | activity change, negative = inhibition [1] | activity change, negative = inhibition [2] | activity change, negative = inhibition [3] | activity change, negative = inhibition [4] | activity change, negative = inhibition [5]
CCC1NC(=O)C2C(Cl)C(Cl)CN2C(=O)C(CC)NC(=O)CC(c2ccccc2)NC(=O)C(CO)NC1=O (stereo not given) | -3.44% | 4.79% | 8.77% | -8.16% | 1.64%
COc1cc(NC(=O)N2Cc3ccccc3-n3cccc3C2c2ccc(C)cc2)cc(OC)c1 (stereo not given) | 12.5% | 0% | 9.8% | 9.75% | 6.41%
C=C(C)[C@H]1Cc2c(ccc3c2O[C@@H]2COc4cc(OC)c(OC)cc4[C@@H]2C3=O)O1 | -19.8% | -3.47% | -6.95% | -15.9% | -4.57%
COC(=O)C1=CCCN(C)C1 | 4.83% | 13.1% | 4.54% | 1.71% | 11.6%
Fc1ccc(C(OCCN2CCN(CCCc3ccccc3)CC2)c2ccc(F)cc2)cc1 | 2.69% | 11.1% | -10.2% | -8.44% | -0.916%
CC[C@H](C)[C@@H]([C@@H](CC(=O)N1CCC[C@H]1[C@H](OC)[C@@H](C)C(=O)N[C@@H](Cc1ccccc1)c1nccs1)OC)N(C)C(=O)[C@@H](NC(=O)C(C)(C)N)C(C)C (H-[Aib]V[Dil][Dolaproine]-Doe) | 1.72% | 3.79% | 6.04% | -8.84% | 4.68%
C=C1[C@@H](C)[C@H]2[C@H](Cc3ccccc3)NC(=O)[C@]23[C@H](OC(C)=O)/C=C/[C@](C)(O)C(=O)[C@@H](C)C/C=C/[C@H]3[C@@H]1O | 0.976% | 3.5% | 10.2% | -12.6% | 6.36%
COc1cc2c(cc1OC)[C@@]13CCN4CC5=CCO[C@H]6CC(=O)N2[C@H]1[C@H]6[C@H]5C[C@H]43 | 0% | 4.26% | 6.3% | -8.65% | -2.5%
COC(=O)c1ccc(Cl)cc1NC(=O)N1Cc2ccccc2-n2cccc2C1C (stereo not given) | 2.79% | 4.9% | -1.31% | -0.37% | 3.85%
CC(=O)OC[C@]12C[C@H](O)C(C)=C[C@H]1O[C@@H]1[C@H](O)[C@@H](OC(C)=O)[C@@]2(C)[C@]12CO2 | 0% | -11.3% | -1.36% | -23.1% | -1.5%
C=C(CO)C(=O)O[C@H]1C/C(C)=C/CC/C(CO)=C/[C@H]2OC(=O)C(=C)[C@H]12 | 0% | 3.92% | 9.46% | -4.49% | 6.2%
COc1cccc([C@@H]2CCN(Cc3[nH]c4ccccc4c3C)C[C@H]2O)c1 | -2.48% | 1.2% | -0.722% | 3.63% | -0.809%
NNC(=O)c1ccc(O)cc1 | 5.74% | 14.2% | 8.32% | -2.53% | 2.43%
COC(=O)[C@@H](N)CCCN=C(N)N[N+](=O)[O-] | 2.42% | 8.93% | 3.95% | -0.323% | 10.5%
COc1ccc(C2c3cccn3-c3ccccc3CN2C(=O)Nc2ccc(F)cc2F)cc1 (stereo not given) | 12.6% | 0% | 8.9% | 6.18% | 4.67%
COc1ccccc1NC(=O)N1Cc2ccccc2-n2cccc2C1C(C)C (stereo not given) | -7.12% | 4.73% | 7.29% | 1.38% | 4.94%
O=C1N(Cc2ccccn2)C[C@H]2CN(Cc3nccs3)CCN12 | -4.11% | -7.59% | -1.27% | -7.14% | -4.8%
COCC(=O)NC[C@H]1C[C@@H]2CCN1C[C@@H]2CN1CCCCC1 | 0.132% | 0.19% | 2.15% | -0.432% | 13.1%
CCOCCCNC(=O)N1Cc2ccccc2-n2cccc2C1c1ccccc1 (stereo not given) | 4.56% | 0.653% | -5.42% | 2.63% | 5.89%
COC1CC(OC2CCC3(C=O)C(CCC4C3CCC3(C)C(C5=CC(=O)OC5)CCC43O)C2)OC(C)C1OC1OC(CO)C(O)C(O)C1O (stereo not given) | 4.69% | 5.71% | 11.8% | -6.56% | 5.47%
NCCCP(=O)(O)O | -9.3% | 2.1% | -1.64% | -8.43% | 5.39%
CNCCc1c[nH]c2ccc(O)cc12 | -13.5% | 8.46% | -20.5% | -5.32% | -1.35%
Cc1ccc(C)c(CC(=O)N2CCN(CCO)CC(O)C2)c1 (stereo not given) | -2.7% | -4.21% | -1.68% | -6.3% | -6.26%
CCCN(CCC)[C@@H]1CCc2ccc3[nH]c(C#N)cc3c2C1 | 4.17% | 6.93% | -83.3% | -13.1% | 2.42%
COc1ccc(NC(=O)N2Cc3ccccc3-n3cccc3C2c2cccc(Cl)c2)cc1OC (stereo not given) | 4.69% | 1.25% | -0.286% | 4.8% | 5.87%
CCc1ccc(NC(=O)N2Cc3ccccc3-n3cccc3C2c2ccc(N(C)C)cc2)cc1 (stereo not given) | 4.35% | 5.27% | 2.85% | 2.35% | 2.34%
COc1ccc(C2c3cccn3-c3ccccc3CN2C(=O)Nc2ccc3c(c2)OCCO3)cc1 (stereo not given) | 7.26% | 1.78% | -3.52% | -6.09% | -2.57%
CCc1ccccc1NC(=O)N1Cc2ccccc2-n2cccc2C1c1ccc(SC)cc1 (stereo not given) | -2.13% | 0% | -2.76% | -3.5% | 1.47%
COC(=O)CCNC(=O)N1Cc2ccccc2-n2cccc2C1c1ccc(Cl)cc1 (stereo not given) | -4.25% | 4.49% | 6.7% | -2.08% | 8.84%
